Among all 44,000 compounds or so, about 340 (0.77%) were called active. Inconclusive results (about 5%) are left out. Calls follow the shape of the dose curve; as a rule, active = well fitted inhibition curve with a large enough effect; inconclusive = small, poorly fitted or top-dose-only effect; inactive = flat fitted curve, though single readings scatter. This is one part of the list.
Assay: Acumen qHTS Assay for Inhibitors of the mTORC1 Signaling Pathway in MEF (Tsc2-/-, p53-/-) Cells: Sytravon;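 also: plate controls were DMSO for no effect and rapamycin for full effect; nearly all actives have a fitted effect of over 50% in size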
Conditions: phospho-rpS6 immunofluorescence/PI, 24 h; series mostly up to 38.3 µM; activity change, negative = inhibition: at the top concentration
In short: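 Compounds act on Tsc2-/-, p53-/- fibroblasts carrying an empty vector for 24 h before fixation and dual staining for phospho-S6 and DNA (propidium iodide). Values are percentages of cells above a rapamycin-defined pS6/PI threshold.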

Activity change, negative = inhibition, inactive:
COC(=O)c1c(-c2cccs2)csc1NC(=O)c1cccc(Cl)c1 -7.98%
COC(=O)c1c(-c2cccs2)csc1NC(=O)c1ccc(Br)cc1 1.71%
CCN(c1cccc(C)c1)S(=O)(=O)c1ccc(-n2cccn2)cc1 -8.75%
CCc1ccc(NC(=O)CCS(=O)(=O)c2cc3c(cc2Cl)NC(=O)CO3)cc1 7.87%
CCN(c1ccccc1)S(=O)(=O)c1cc(Br)cc2c1N(C(=O)C1CC1)CC2 -15.4%
Cc1ccc(-c2cc(C(=O)NCc3cnn(C)c3C)c3ccccc3n2)cc1C -6.73%
Cc1ccc(C(=O)N2CCc3cc(CNC(=O)CSc4ccccc4)ccc32)cc1 -13.5%
N#Cc1ccc(S(=O)(=O)N2CCC(Oc3cccc(C(F)(F)F)c3)CC2)cc1 -11.3%
COc1ccc(CNC(=O)C(=O)Nc2c3c(nn2-c2ccccc2)CSC3)cc1 -1.98%
COc1cc(OC)c(OC)cc1CN1CCc2nc(Nc3ccc4c(c3)OCCO4)ncc2C1 17.7%
CCCNC(=O)C1=CC(c2ccc3c(c2)OCO3)=NS(=O)(=O)N1C 1.6%
Cn1c(=O)c2c(nc(N3CCOCC3)n2Cc2cccc(Br)c2)n(C)c1=O -2.44%
Cc1ccccc1CNC(=O)Cc1ccc(NC(=O)N2CCCCc3ccccc32)cc1 -3.97%
COc1ccc(N2CCN(C(CNC(=O)C(=O)NCc3cccnc3)c3cccnc3)CC2)cc1 (centres undefined) -1.57%
CCOc1ccc(C(=O)c2cn(CC(=O)Nc3cccc(OC)c3)c3cc4c(cc3c2=O)OCCO4)cc1 -6.57%
Cc1nn2c(-c3ccco3)ccnc2c1-c1ccc(Br)cc1 2.16%
Cc1ccc(-c2cc(N)n(-c3ccc(C)cc3)n2)cc1 4.53%
Cc1c(C(=O)N2CCCCC2)c(S(=O)(=O)NCc2ccc(N(C)C)cc2)c(C)n1C -2.9%
COc1ccccc1CNC(=O)C(C)n1ccc2cc(S(=O)(=O)N3CCCC3)ccc21 (centres undefined) -12.8%
COc1ccc(CNC(=O)c2ccc3nc(CCc4ccccc4)oc3c2)cc1 -0.0022%
Cc1ccc(-c2[nH]c3c(c2-c2c(-n4cccc4)n(C)c(=O)[nH]c2=O)c(=O)[nH]c(=O)n3C)cc1 -10.5%
CCOC(=O)c1c(C)oc2nc(C)nc(N3CCN(c4ccccc4F)CC3)c12 -4.22%
CCOc1ccc(NC(=O)C2CCN(c3nnc(C)c4c(C)n(-c5ccccc5)nc34)CC2)cc1 -15.6%
Cc1ccc(NC(=O)CSc2nc3c([nH]c4ccccc43)c(=O)n2-c2ccccc2)cc1Cl -0.48%
Cc1cccc(N2CCN(C(=O)C3CCN(C(=O)c4cc5sccc5n4C)CC3)CC2)c1C -1.36%
Cc1ccc(C2Nc3cc(C)c(C)cc3-n3c(-c4ccccc4)c4c(=O)n(C)c(=O)n(C)c4c32)o1 (centres undefined) 0%
Cc1ccc2[nH]cc(S(=O)(=O)c3ccc(C)c(C)c3)c(=O)c2c1 1.25%
CC1Cn2c(C(=O)NCCc3ccc(Cl)cc3)cc3cccc(c32)S1 (centres undefined) -1.74%
Cc1ccc(F)cc1NC(=O)CCc1c(C)nn(-c2ccc(N3CCOCC3)nn2)c1C 2.1%
COc1ccc(NC(=O)CCS(=O)(=O)c2nc(-c3ccc4c(c3)OCO4)cc(C(F)(F)F)n2)cc1 -4.69%
COc1ccc(C)cc1NC(=O)CCc1c(C)nn(-c2ccc(N3CCCCC3)nn2)c1C -0.708%
Cc1ccc(/C=C/c2onc(C)c2S(=O)(=O)N2CCC(C(=O)N3CCOc4ccc(C)cc43)CC2)cc1 -8.81%
Cc1c(C(=O)N2CCCC2)oc2c1-c1nn(CC(=O)NCc3ccccc3Br)cc1CC2 -11.2%
CSc1ccc(C2CC(=O)Oc3c2c(=O)n(C)c2ccccc32)cc1 (centres undefined) 19.2%
COc1ccc(-c2cc(C(=O)Oc3ccc(C)cc3)c3cc(C)ccc3n2)cc1 -6.37%
Cc1cc(=O)n(C(C)C(=O)N2CCCc3ccccc32)c2c1c(C)nn2-c1ccccc1 (centres undefined) -18.4%
CC1CCN(c2nn3c(=O)c(C(=O)NCCc4ccccc4)cnc3s2)CC1 10.4%
Cc1ccc(-c2nnc(Nc3ccc(OC(F)(F)Cl)cc3)c3ccccc23)cc1S(=O)(=O)NC(C)(C)CO 4.21%
CC(=O)N1CCc2c(sc3nc(SCC(C)C)n(-c4ccc(C)c(Cl)c4)c(=O)c23)C1 -1.64%
CCCCn1c(=N)c(S(=O)(=O)c2ccc(C)cc2)cc2c(=O)n3cc(C)ccc3nc21 -24.2%
CCc1nn2c(=O)cc(COC(=O)c3ccc(NC(=O)CCc4ccccc4)cc3)nc2s1 0%
O=C(Nc1ccc(-c2nc3cc(NC(=O)c4ccc(F)cc4)ccc3o2)cc1)c1ccc(F)cc1 -9.64%
Nc1ccc(NC(=O)c2cccc(C(=O)Nc3ccc(N)cc3Cl)c2)c(Cl)c1 -15.1%
O=C(COc1ccccc1)N(Cc1cccnc1)c1nc2c(F)cccc2s1 0.0785%
Cc1nn(C(C)C(=O)Nc2ccc(C(C)C)cc2)c(=O)c2c1sc1ccccc12 (centres undefined) -1.32%
CC(NC(=O)C1CCN(S(=O)(=O)c2ccccc2)CC1)c1ccccc1 (centres undefined) -1.28%
CCc1nc(SC)ncc1C(=O)N1CCN(c2cc(Cl)ccc2C)CC1 0.0361%
COc1cc(-c2nc(SCC(=O)Nc3ccc(C)cc3)c(-c3ccc(F)cc3)[nH]2)cc(OC)c1OC -2.14%
COc1ccccc1N1CCN(C(=O)c2cnn(-c3cccc(Cl)c3)c2C2CCN(C(=O)OC(C)(C)C)CC2)CC1 0%
Cc1cccc(-c2nn3c(=O)cc(CN4CCN(C(=O)c5ccccc5Br)CC4)nc3s2)c1 -2.42%
C#CC(C)(CC)NC(=O)Cn1nnc(-c2ccc(OCc3ccccc3C)cc2)n1 (centres undefined) -28.6%
COc1ccccc1CNc1nc(-c2ccco2)nn1C(=O)c1cc(OC)c(OC)c(OC)c1 0.712%
CCCn1c2ccccc2c2cnn(CC(=O)NCC3CCN(Cc4ccc(F)cc4)CC3)c(=O)c21 -1.43%
Cc1ccccc1CNC(=O)C1=Cc2ccccc2OC1 0.225%
CCn1c2ccccc2c2nnc(N3CCN(c4cccc(Cl)c4)CC3)nc21 -2.73%
COc1ccc(S(=O)(=O)N2CCC(N3CCN(Cc4ccccc4)C(=O)C3=O)CC2)cc1 4.64%
CCOC(=O)c1c(C)[nH]c(CCC(=O)NCc2ccc(OC)c(OC)c2)c1C 8.25%
COc1ccc(CNC(=O)Cc2c(C)c3cc4c(C)coc4cc3oc2=O)cc1 0.679%
CSc1nn(CC(=O)Nc2ccccc2F)c(N)c1S(=O)(=O)c1ccccc1 5.35%
Cc1ccc(N2CCn3c2nc2c3c(=O)n(C/C=C/c3ccccc3)c(=O)n2C)cc1C 4.34%
COCCCNC(=O)Cn1c(=O)n(-c2cccc(C)c2)c(=O)c2c1c1cc(C)ccc1n2C 0.26%
Cc1ccc(CN2CCSc3ccc(C(=O)NCc4ccc(OC(C)C)cc4)cc32)cc1 -5.7%
COc1ccc(-c2noc(CCCC(=O)Nc3cccc(Cl)c3C)n2)cc1 1.33%
COc1ccccc1-c1c(C)nn2c(-c3ccccc3)cc(-c3ccccc3)nc12 0.453%
CCOc1ccc(C2=NC(c3ccncc3)=Nc3ccc(C)cc3N2)cc1OCC 2.69%
Cc1ccc(OCCn2cc(C(=O)c3cccs3)c3ccccc32)cc1 -2.8%
COc1cccc(/C=C/c2onc(C)c2S(=O)(=O)N2CCC(C(=O)N3CCCCC3)CC2)c1 -3.03%
COc1ccc(C2CC(=O)c3c([nH]c(C(=O)OCc4ccccc4)c3C)C2)cc1 (centres undefined) -27.2%
COCc1cc(C)nc2sc(C(=O)Nc3ccccc3O)c(N)c12 -8.83%
COc1ccccc1NC(=O)C1=C(C)Nc2c(C(=O)Nc3ccc(C)cc3)cnn2C1c1cccc(OC)c1OC (centres undefined) -6.78%
Cc1ccccc1NC(=O)c1cc2c(-c3ccccc3)nn(-c3ccccc3)c2s1 -21.2%
Cc1cccc(N2CCN(C(=O)Cn3nc(C)c4sc5ccccc5c4c3=O)CC2)c1C -1.5%
COc1ccc(CNC(=O)Cn2c(=O)nc(-c3ccccc3)c3cc(Cl)ccc32)cc1OC 5.71%
CCCSCCCNC(=O)C1CCN(C(=O)c2cnn(-c3ccccc3)c2-n2cccc2)CC1 -0.885%
COc1cccc(C(=O)Nc2ccc(-n3nncc3-c3ccccc3)cc2)c1OC 10.3%
CCc1ccc(NCc2cc3ccc(OC)cc3n(CC(=O)Nc3ccccc3C)c2=O)cc1 -9.8%
COc1ccc(NC(=O)CSc2nc(-c3cccs3)cc(C(F)(F)F)n2)cc1Cl -27.4%
CCCCN(CCCC)CCNC(=O)Cn1nc(CC)n2c(cc3sccc32)c1=O -10%
CCC1=Nc2cc(C(=O)NCCc3ccc(OC)c(OC)c3)ccc2Sc2ccccc21 0.623%
CCc1ccc(C(=O)CC2(O)C(=O)N(CCc3ccccc3)c3ccc(Br)cc32)cc1 (centres undefined) -7.15%
CCc1c(C)sc2c1CCN(Cc1cccc(OC)c1)C2c1ccccc1 (centres undefined) 0.686%
Cc1ccc(CSC2=Nc3ccccc3C3=NC(CCC(=O)NC4CCCCC4)C(=O)N23)cc1 (centres undefined) 0.0432%
CCc1ccccc1S(=O)(=O)Cc1ccc(C(=O)NCc2ccc(Cl)cc2)o1 -0.415%
COC(=O)c1ccc(Cl)cc1NC(=O)Nc1nnc(N(C)C2CCCCC2)s1 2.06%
COc1ccc(CCC(=O)NCc2ccc3c(c2)CCN3C(=O)c2ccc(Cl)cc2)cc1 0.0584%
Cc1ccc(CNC(=O)C(NS(=O)(=O)c2cccs2)C(C)C)cc1 (centres undefined) -4.28%
CC(=O)c1cccc(NC(=O)CSc2nc3c(c(=O)[nH]2)CCC3)c1 2.41%
CCc1ccc2oc(C(=O)Nc3ccccc3OC)cc(=O)c2c1 -3.71%
COc1ccc(-n2nc3ccc(NC(=O)c4c(OC)cccc4OC)cc3n2)cc1 0.925%
O=C(Cn1c(=O)n(-c2ccc(F)cc2)c(=O)c2sc3ccccc3c21)NC1CCCC1 6.67%
CCc1nc2ccccc2n2c(-c3ccc(C)cc3)c3c(=O)n(C)c(=O)n(C)c3c12 8.72%
Cc1cccc(N2CCN(C(c3ccccc3)c3nnc(-c4ccccc4F)o3)CC2)c1C (centres undefined) 4.43%
Cc1cc(C)cc(NC(=O)C2CCCN(S(=O)(=O)c3cccc4nsnc34)C2)c1 (centres undefined) 2.43%
Fc1ccc(Nc2nc(SCc3ccccc3Cl)nc3ccccc23)cc1 3.14%
